The record followed here is the RNAGym collection of RNA variant scans (doi:10.1093/nar/gkz1192).

B1: CPEB3 Ribozyme (parent)
chain: UAACAGGGGGCCACAGCAGAAGCGUUCACGUCGCAGCCCCUGUCAGAUUCUGGUGAAUCUGCGAAUUCUGCUGUAUAUCUC

The source gives no read counts; variants with many changes may rest on few reads.

In the data set the parent is B1. The data set can be described thus: self-cleavage, relative activity (ratio to wild type); higher = more cleavage; in vitro, sequencing. Summed up: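 Relative activity compares each variant's cleaved/total read fraction with that of the unmutated ribozyme. To get these fractions, barcoded CPEB3 ribozyme libraries from rounds of error-prone PCR were transcribed with T7 RNA polymerase for 5 hours at 37°C and then given 15 min of DNase I treatment before EDTA was added. The RNAs were reverse transcribed with template switching and sequenced on Illumina, and DNA sequencing linked barcodes to variants. A minimum of 5 reads applied, and three batches were averaged.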
UAACAGGUGGCCACAGCAAAAGCGUUCACGUCGCAACCCCAGUCAGAUUCUGGUGAAUCUGCGAAUUCUGCUGUAUAUCCC [G8U G19A G36A U41A U80C]: the self-cleavage stood at 0.11. To UAACAGGUGGCCACAGCAGAAGCGUUCACGUCCCAGCCCCUGUCAGAUUCUGGUGAGUCUGCGAAUUCUGCUGUAUAUCUC [G8U G33C A57G] belongs 0.11; to UAACAGGUGGCCACAGCAGAAGCGUCAGCGUCGCAGCCCCUGUCAGAUUCUGGUGAAUCUGCGAAUUCUGCAGUAUACCUC [G8U U26C C27A A28G U72A U78C], 0.05. Take UAACAGGUGGCCACAGCAGAAGCGCUCACGUCGCAGCCCCUGUCAGAUUCUGGUGAAUCUGCGAAUUCGGCUGUAUAUCUC [G8U U25C U69G]: the self-cleavage was 0.03. The figure for UAACAGGUGGCCACAGCAGAAGCGUUCACGUCGCAGCCCCUGUCAGAUUCUAGUGAAUCAGCGAAUUCUGCUGUAUAUCUC [G8U G52A U60A] is 0.21; for UAACAGGUGGCCACAGCAGAAGCGUUCACGUCGCAGCCCCCGUCAGAUUCUGGUGAAUCUGCGAGUUCAGCUGUAUAUCUC [G8U U41C A65G U69A] it is 0.07. With UAACAGGUGGCCACAGCAGAAGCGUUCACGCCGCAUCCCCAGUCGGAUUCUGGUGAAUCUGCGAAUUCUGCUGUAUAUCUC [G8U U31C G36U U41A A45G], the self-cleavage was found to be 0.04. The figure for UAACAGGUGGCCACAGCAGAAGCGCUCACGACGCAGCCCCUGUCAGAUCCUGGUGAAUCUGCGAAUUCUGCUGUAUAUCUC [G8U U25C U31A U49C] is 0.34. To UAACAGGUGGCCACAGCAGAAGCGUUCACGUUGCAGCCCCUGUCAGAUUCUGGUGAAUCUGCGAAUUCAGCUGUAUAUCUC [G8U C32U U69A] belongs 0.07; to UAACAGGUGGCCACAGCAGAAGCGUUCACGUCGCGGCCCCUGUCAGAUCCUGGUGAAUCUGCGAAUUCUGCUGUAUAUCUC [G8U A35G U49C], 0.15.

As for UAACAGGUGGCCACAGCAGAAGCGUUCACGUCGCUGCCCCUGUCAGAUUCUGGUGAAUCUGCGAAUGCUGCUGUAUAUCUC [G8U A35U U67G], the self-cleavage is 0.29. Regarding UAACAGGUGGCCACAGCAGAAGCGUUCACGUCGCUGCCCCUGUCAGAUUCUGGUGAAUCUGCGAACUCUGCUGCAUAUCAC [G8U A35U U66C U74C U80A], the self-cleavage turned out to be 0.1. The figure for UAACAGGUGGCCACAGCAGAAGCGUCCGCGUCGCGGCCCCUGUCAGAUUCUGGUGAAUCUGCGAAUUCUGCUAUAUACCUC [G8U U26C A28G A35G G73A U78C] is 0.04; for UAACAGGUGGCCACAGCAGAAGCGUUCACGUCGCAGCCCCUGUCAGAUUCUGGUAAAUCUGCGAAUUCUGAUGUAUAUCUC [G8U G55A C71A] it is 0.1; for UAACAGGUGGCCACAGCAGAAGCGUUCACGUCACAGCCCCUGGCGGAUUCUGGUGAAUCUGCGAAUUCAGCUGUGUAUCUC [G8U G33A U43G A45G U69A A75G] it is 0.08. Take UAACAGGUGGCCACAGCAGAAGCGUUCACGUCGCAGCCCCCGUCAGAUUCCGGUGAAUCUGCGAAUUCUGCUGUAUAUCUC [G8U U41C U51C]: the self-cleavage came out at 0.16. For UAACAGGUGGUCACAGCAGAAGCGUUCACGUCGCAGCCCCUGUAAGAUUCUGGUGAAUCAGCGAAUUCUGCUGUAUAUCCC [G8U C11U C44A U60A U80C], the self-cleavage came to 0.12. Regarding UAACAGGUGGCCACAGCAGAAGCGUUCACGUCGAAGCCCCUGUCUGAUUCUGGUGAAUCUGCGAAUACUGCUGUAUAUCUC [G8U C34A A45U U67A], the self-cleavage was 0.04. On to UAACAGGUGGCCACAGCAGAAGCGUUCACGUCGUAGCCCCUGUCAGAUUCUGGUGAAUCUGCGGAUUCUGCUGUAUACCUC [G8U C34U A64G U78C], for which the self-cleavage came out at 0.09. To UAACAGGUGGCCACAGCAUAAGCGUUCACGUCGCAGCCCCUGUCAGAUUCUGCUGAGUCUGCGAAUUCUGCUGUAUAUCUC [G8U G19U G53C A57G] belongs 0.1.

As for UAACAGGUGGCCACAGCAGAAGCGUCCACGUCGCAGCCCCUGUCAGAUUCUGGUGGAUCUGCGAAUUCUGCUCUAUAUCUC [G8U U26C A56G G73C], the self-cleavage worked out at 0.12. For the variant UAACAGGUGGCCACAGCAGAAGCGUUCACGUCACCGCCCCUGUCAGAUUUUGGUGAGUCUGCGAAUCCUGCUGUAUAUCUC [G8U G33A A35C C50U A57G U67C], the self-cleavage was 0.05.

Take UAACAGGUGGCCACAGCAGAAGCGUUCACGUCGCAUCCCCUGCCAGAUUCUGGUGAAUCUGCGAAUACUGCUGUAUAUCUC [G8U G36U U43C U67A]: the self-cleavage turned out to be 0.13. Consider UAACAGGUGGCCACAGCAGAAGCGUUCACGUCGCAGCCCCAGUCAGAUUCUGGUGAAUCUGCGAAUUCUGCUGUAUAACUC [G8U U41A U78A], for which the self-cleavage came to 0.15. For the variant UAACAGGUGGCCACAGCAGAAGCGUUCACCUCGCAGCCCCUGUCAGAUUCUGGUGAAUCUGCGAACUCUGCUGUAUAUCUC [G8U G30C U66C], the self-cleavage came to 0.09. The figure for UAACAGGUGGCCACAGCAGAAGGGUUCACGUCGCAGCCCCCGUCAUAUUCUGGUGAAUCUGCGAAUUCUGCUGUUUAUCUC [G8U C23G U41C G46U A75U] is 0.05; for UAACAGGUGGCCACAGCAGAAGCGUUCACGUCGCAGCCCCAGGCUGAUUCUGGUGAAUCUGCGAAUUCUGCUGUAUAUCUC [G8U U41A U43G A45U] it is 0.05; for UAACAGGUGGCCACAGCAGAAGCGUUCACAUCGCAGCCCCUGUCAGAUCCUGGUGAAUCUGCGAAUUCUGCUGUAUAUCUC [G8U G30A U49C] it is 0.15. To UAACAGGUGGCCACAGCAGAAGCGCUCACGUCGCAGCACCUGUCAGAUUCUGGUGAAUCUGCGAAUUCUGCAGUAUGUCUC [G8U U25C C38A U72A A77G] belongs 0.03; to UAACAGGUGGCCACAGCAGAAGCGUUCACGUCGCAGCCCCCGCCAGAUUCUGGUGAAUCUGCGAAUUCUGCUGUAUAUCUC [G8U U41C U43C], 0.07; to UAACAGGUGCCCACAGCAGAAGCGCUCACGUCGCAGCCCCUGUCAGAUUCUGGUGAAACUGCGAAUUCUGCUGUAUAUCUC [G8U G10C U25C U58A], 0.04. As to UAACAGGUGGCUACAGCAGAAGCGUUCACGUUGCAGCCCCUGUCGGGUUCUGGUGAAUCUGCGACUUCUGCUGUAUAUCUC [G8U C12U C32U A45G A47G A65C], the self-cleavage is 0.1.

Regarding UAACAGGUGGCCACACCAGAAGCGUUCACGUCGCAGCCCCUGUCAGAUUCUGGUGAAUCUGCGAAUUCAGCUGUAUAUCUC [G8U G16C U69A], the self-cleavage was 0.05. Consider UAACAGGUGCCCACAGCGGAAGCGUUCACGUCGCAGCCCCUGUCAGAUUCUGGUGAAUCUGCGUAUUCUGCCGUAUAUCAC [G8U G10C A18G A64U U72C U80A], for which the self-cleavage was determined as 0.06.
